Measured values reported in the supplement of paper PMC11417369.
Some of the results follow.

Test system: PfHDP1 homeodomain (GST-tagged)
Assay: gcPBM binding intensity (ln(normalized median fluorescence intensity)); higher = stronger DNA binding
Summary of the method: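 Alexa488 anti-GST antibody, scanned at 488 nm, detected GST-tagged P. falciparum DNA-binding domains that had been expressed in E. coli and incubated for 1 h on an Agilent 4 × 180k array. The array carried primer-extended double-stranded 36-bp intergenic genomic probes and negative controls. Binding intensity is the highest Masliner-normalised natural-log median intensity across replicate spots of either orientation of each probe.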

First: CCACTTGTGTAATGTTGTACAAAAATAAATATATTT [XGTACX_site4598]
Second: CTATGAACACACACATGTACATATATTAACTCGCTA [XGTACX_site8805]
The “gcPBM binding intensity (ln)” value of the first is higher: 6.68 for the first, 6.65 for the second.

Going from “ATAATTAAAAATAATATATATATAATATGATATTAT [GTGCAC_negctrl_site194]” to “TATCTTCATTGTTGACGTACAGTATTTCTAAACGTT [XGTACX_site3439]”, the “gcPBM binding intensity (ln)” value rises from 6.43 to 6.45.

Compared with “TAAATATATATAACATGTACATAAAATATATATATA [XGTACX_site4431]”, “AGGCCTTTTAGTATTTCACACACGTAAATGCGTATA [CACACA_site1108]” is lower in “gcPBM binding intensity (ln)” value: 8.09 for the first, 6.26 for the second.

Compared with “TTTTTGTTAAAATAAATATTATAAATATATTAATAT [TGCATGCA_negctrl_site239]”, “TACATATTTTATAGCACACAAATAATAATATGTAGT [CACACA_site688]” is higher in “gcPBM binding intensity (ln)” value: 6.29 for the first, 6.5 for the second.

Compared with “AAAAAAAAAAAAATGTGGACACAATTGTGTGTTTGT [XGTACX_site3563]”, “GTTGTGGAAAGAAGTTGTACATAAAATATTATATAA [XGTACX_site4352]” is lower in “gcPBM binding intensity (ln)” value: 7.21 for the first, 6.5 for the second.

Compared with “CGAGCAAGACGGGGTGCACACAAACTAATATGCCGA [CACACA_site7936]”, “TACCTTTATTAATAAAGTACATTAATCTGTGTATAC [XGTACX_site8720]” is lower in “gcPBM binding intensity (ln)” value: 9.58 for the first, 6.4 for the second.

First: ATTATTATGTAGAAGGTGCTATGTTCTATAAATATA [GTGCAC_site9545]
Second: CATAAAAATGAACATACACACATATATATATATATA [CACACA_site2498]
The “gcPBM binding intensity (ln)” value of the first is lower: 6.28 for the first, 9.29 for the second.

First: TTGCTTTCTTTTTTTTGTACTCATATCTACTATCAT [XGTACX_site7711]
Second: ATATATATATATATATGTACATACCCAATTGTGTAA [XGTACX_site6352]
The “gcPBM binding intensity (ln)” value of the first is lower: 7.38 for the first, 9.15 for the second.

First: ATTTAAAATGGTTATACACACATAAAAGGGGAAATG [CACACA_site2649]
Second: TACAGACATACATACACACATACATATATATATATA [CACACA_site1940]
The “gcPBM binding intensity (ln)” value of the first is lower: 7.2 for the first, 9.13 for the second.

First: AAATATAAAAAAAAAAGTACTTTGTTACTTTTCTAT [XGTACX_site6034]
Second: TTTTTATTAAATAAAGCACACACAACAACTTTTCAC [CACACA_site9372]
The “gcPBM binding intensity (ln)” value of the first is lower: 5.71 for the first, 7.2 for the second.

Compared with “AACTGCAAAAAAAGACGTACAAATTATTAATTGCAA [XGTACX_site8929]”, “AAAATAAATATAACCACACACGAAAGAGAGAGAAAA [CACACA_site3272]” is higher in “gcPBM binding intensity (ln)” value: 6.5 for the first, 6.73 for the second.

Compared with “TAACCATAAGAAGATTGTACATAATAAAAGTATTCT [XGTACX_site1117]”, “ATCGAAGGGGTACAAAATAAAAATAATTCTTTCAAA [TGCATGCA_negctrl_site373]” is lower in “gcPBM binding intensity (ln)” value: 6.31 for the first, 6.23 for the second.

First: GTATATATCTAAAAATATATATATATATATATATAT [CACACA_negctrl_site788]
Second: AAGTGTTATGAAATATGTACACATATATTATATATA [XGTACX_site6022]
The “gcPBM binding intensity (ln)” value of the first is higher: 9.51 for the first, 6.56 for the second.

Compared with “TATAAATAAATATGGAGTACCAAAAAAATTATAAAA [XGTACX_site7581]”, “ATACAAATTAAGCCTCAAGTTCTTTTTTTTAACATA [XGTACX_negctrl_site580]” is higher in “gcPBM binding intensity (ln)” value: 6.21 for the first, 6.23 for the second.

Compared with “ATATAACATGGACACACACACATATATATATATTAT [CACACA_site6135]”, “GGTGCACCCATATACACACACAAATACAATGATAAA [CACACA_site1132]” is higher in “gcPBM binding intensity (ln)” value: 7.06 for the first, 10.2 for the second.

First: AAAAAAAAGAATTATTGTACAAAAGAACAATAAATA [XGTACX_site1368]
Second: GTGAAATTATATTTTTGTACATATATTATATATTAT [XGTACX_site3387]
The “gcPBM binding intensity (ln)” value of the first is lower: 6.05 for the first, 6.54 for the second.

Going from “ATACAAAATCTAATTTGTACACAATGTTTGATTTTT [XGTACX_site5438]” to “TACAAATGAGAAATATGTACATAAAAAAAAAAAAAT [XGTACX_site801]”, the “gcPBM binding intensity (ln)” value rises from 6.17 to 6.85.

First: TTGTTCTTTCAAATTATACACACCAAAAAAAAAAAA [CACACA_site3070]
Second: AATATAAATAAAAAATTGATTTCTTTAAAAAGGTAT [CACACA_negctrl_site1038]
The “gcPBM binding intensity (ln)” value of the first is higher: 6.51 for the first, 6.14 for the second.

First: TAATCATAAAAAAATACACACATATATAATATATAT [CACACA_site1983]
Second: TTCTTTTTTTTTAAAACAAACAAACAAACAAACAAA [CACACA_negctrl_site832]
The “gcPBM binding intensity (ln)” value of the first is higher: 6.75 for the first, 6.6 for the second.

Going from “TATTTATTTATTTAGTGTACATTTATATTTGTTCAT [XGTACX_site7575]” to “TTAATCTTTCCTACATGTACACACAGAAAAAAAAAA [XGTACX_site5213]”, the “gcPBM binding intensity (ln)” value falls from 6.87 to 6.57.

First: TATCCATATTTGTTCACACACACACCCATTTATATA [CACACA_site3571]
Second: ATTTTTATGTTGAAAAGTACTTGAATCCCATGTAAC [XGTACX_site4453]
The “gcPBM binding intensity (ln)” value of the first is higher: 7.13 for the first, 6.3 for the second.

Going from “TTATTTTTTTTGTGTTGTACAATTTATTACTACTAA [XGTACX_site346]” to “AATATATTTTAATATACACACATATATGCTCTTTAA [CACACA_site9371]”, the “gcPBM binding intensity (ln)” value falls from 6.88 to 6.85.
